# Data: article PMC7819943, “Rice protein-binding microarrays: a tool to detect cis-acting elements near promoter regions in rice”
# This is one part of the list.
# Target: T1, OsWOX13 (Oryza sativa, UniProt Q5QMM3 1-267)
# T1 sequence: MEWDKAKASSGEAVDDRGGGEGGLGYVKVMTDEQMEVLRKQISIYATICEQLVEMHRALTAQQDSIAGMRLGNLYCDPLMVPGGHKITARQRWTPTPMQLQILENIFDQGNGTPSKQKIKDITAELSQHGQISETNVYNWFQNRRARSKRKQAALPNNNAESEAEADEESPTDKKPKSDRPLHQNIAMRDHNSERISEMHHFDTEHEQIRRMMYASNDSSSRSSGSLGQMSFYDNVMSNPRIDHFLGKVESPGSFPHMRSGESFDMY
# Assay: protein-binding microarray (RPBM); PBS, 2% BSA, 51.3 ng/ul salmon testes DNA, 50 uM zinc acetate, 200 nM TF, 25 C, 1 h; high values mean tight binding
# Conditions: protein: recombinant; tags: N-terminal polyhistidine and DsRed monomer fusion (pET32a); label: CyDye5-dUTP incorporated in the synthesized complementary strand; 3' TTTTT single-stranded linker to array surface; dsDNA, one strand shown
# Method in brief: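 An Axon 4000B scanner gave the binding signal as per-feature fluorescence intensity in arbitrary units. This followed washing of a custom Agilent array that had been incubated for 1 h at 25 °C with 200 nM protein in PBS, 2% BSA, salmon testes DNA and 50 µM zinc acetate. The proteins were transcription factors fused at the N-terminus to polyhistidine and DsRed, expressed in E. coli BL21-CodonPlus and purified on Ni–NTA.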
row,Sequence,binding signal
1,GAGATTGTAGCGAATTGACAACCTGATGAAGGGATCGATCCGGAGTCACCTAGTGCAG,13600 fluorescence intensity (a.u.)
2,AAAATAGATAATTTTGTATGGGTGCTAATTGCGCGGGCTACGGAGTCACCTAGTGCAG,24500 fluorescence intensity (a.u.)
3,CAGGTGACTAATTTGAATGCCGGGGATTATCAGCGCGTGACGGAGTCACCTAGTGCAG,23100 fluorescence intensity (a.u.)
4,TACAAATTTTGAGTGGACTGTACAAATTTTGCCTTCCAAACGGAGTCACCTAGTGCAG,3440 fluorescence intensity (a.u.)
5,TTTAATTGATCCAAATATGGTCGCGATAATATTTTATTTACGGAGTCACCTAGTGCAG,28500 fluorescence intensity (a.u.)
6,CGCTAAAATTAAAAGTTTGATTGAAATTAGAACGATGTAACGGAGTCACCTAGTGCAG,30300 fluorescence intensity (a.u.)
7,TGTCTCGTTTAATTGGGCCCGGAAACTAAGCCCAAGTGGACGGAGTCACCTAGTGCAG,4060 fluorescence intensity (a.u.)
8,ACAAGATCTCAGTTGGTTATATTCAAGTGAAAGAAAATATCGGAGTCACCTAGTGCAG,9670 fluorescence intensity (a.u.)
9,AACGTGTTAATAGAAATTAAGGTAGAATCTGCATATAATCCGGAGTCACCTAGTGCAG,4350 fluorescence intensity (a.u.)
10,GTGTTGAATGATAGACTGATAGCTGCGTGCAGCCTCTGAGCGGAGTCACCTAGTGCAG,23400 fluorescence intensity (a.u.)
11,CTGGTTCATTTATGCATAATTAGACCTTATCTGGGTCTTACGGAGTCACCTAGTGCAG,6520 fluorescence intensity (a.u.)
12,GTTAATTTTCTCTACCCTTTATTGTTCTGCTGCCTTGTGGCGGAGTCACCTAGTGCAG,20800 fluorescence intensity (a.u.)
13,TACTCAATCGCAGCAAATCAATCCACCATCCATCCACGTCCGGAGTCACCTAGTGCAG,4630 fluorescence intensity (a.u.)
14,TTTGTCCATTCATTCATTCTCAATCATTCATGGTGATAATCGGAGTCACCTAGTGCAG,5560 fluorescence intensity (a.u.)
15,GATTAAATTGATCTTAGAACAAACTAAATACTACGAGGTCCGGAGTCACCTAGTGCAG,37200 fluorescence intensity (a.u.)
16,GTTCTAATTAGTTGCTATATATTGAGATAGAGGGAGTGGTCGGAGTCACCTAGTGCAG,49500 fluorescence intensity (a.u.)
17,AGGATGATTATATATGATAATCAGTTTAGAAATTCTGGTTCGGAGTCACCTAGTGCAG,44500 fluorescence intensity (a.u.)
18,TTGATGTGACAACAAATTGAAATATACACTTCCATCCAAACGGAGTCACCTAGTGCAG,4140 fluorescence intensity (a.u.)
19,CCCAAAATCATCAATGCAAATTAATCTCCCCTCTTCTTCTCGGAGTCACCTAGTGCAG,7150 fluorescence intensity (a.u.)
20,GAGAGACGGTTTAATCAAGGAGCAGTTGATGGGAGAGGCGCGGAGTCACCTAGTGCAG,4550 fluorescence intensity (a.u.)
21,ATTAATCATGTAAAATTGACGTTACTAGATTTATTATTACCGGAGTCACCTAGTGCAG,28300 fluorescence intensity (a.u.)
22,AGCTGATTAAGGTCCTCCAAGCGAAATCGGAGTCGAGTCTCGGAGTCACCTAGTGCAG,5690 fluorescence intensity (a.u.)
23,TTATAATATATCAATCCGAGTCCTTCATCATTTCTCCATTCGGAGTCACCTAGTGCAG,6540 fluorescence intensity (a.u.)
